This is one part of the list.
Molecular target: no compound (DMSO)
Assay: log2 fold change of degron read counts, EGFP-low vs EGFP+ sorted cells; higher = lower degron-EGFP level without compound (poor expression or instability)
Settings: compound: DMSO control; 18 h
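Further: jurkat cells carrying a lentiviral library of mutant zinc finger degrons fused to EGFP plus mCherry, mCherry+ cells FACS sorted, degron abundance counted by next-generation sequencing.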

Sequence | log2 fold change of degron read counts
FVCDICGAHFTQKGNLLRHIKL | -0.982
FQCEQCGALFTQKGNLLRHIKL | -2.13
LSCEICGFCCTQKGNLLRHIKL | 0.0752
FWCEVCGAAFTQKGNLLRHIKL | -1.21
LACPICGFECTQKGNLLRHIKL | -0.0967
FNCPVCGARFTQKGNLLRHIKL | -0.297
FHCNQCGHQFTQKGNLLRHIKL | 0.0838
FQCSVCGHEFTQKGNLLRHIKL | -3.27
FYCNQCGHGFTQKGNLLRHIKL | 0.185
FYCNICGANFTQKGNLLRHIKL | 0.0113
FCCEVCGANFTQKGNLLRHIKL | -2.14
LWCPICGFPCTQKGNLLRHIKL | 2.81
FYCEICGAVFTQKGNLLRHIKL | -0.327
FLCPVCGAVFTQKGNLLRHIKL | 0.372
LECEICGFNCTQKGNLLRHIKL | 0.107
LNCNQCGFYCTQKGNLLRHIKL | 1.78
FQCNQCGATFTQKGNLLRHIKL | -1.7
FRCEICGRKFTQKGNLLRHIKL | -1.66
FTCDQCGAPFTQKGNLLRHIKL | -1.58
FHCPICGREFTQKGNLLRHIKL | -0.458
LECPICGFGCTQKGNLLRHIKL | 0.15
FRCEICGAQFTQKGNLLRHIKL | -1.17
FKCPICGAHFTQKGNLLRHIKL | -0.507
FGCPQCGAAFTQKGNLLRHIKL | -1.04
FACEQCGAQFTQKGNLLRHIKL | -1.66

Sequence | log2 fold change of degron read counts
FKCNQCGRIFTQKGNLLRHIKL | 0.137
FACPICGAWFTQKGNLLRHIKL | 0.912
LTCPICGFECTQKGNLLRHIKL | -0.0387
FWCPVCGAFFTQKGNLLRHIKL | 2
LMCPICGFQCTQKGNLLRHIKL | 0.146
FDCDQCGACFTQKGNLLRHIKL | -0.794
FACNQCGHEFTQKGNLLRHIKL | -1.15
FYCEVCGAYFTQKGNLLRHIKL | -1.25
FSCEVCGAEFTQKGNLLRHIKL | -3.18
FQCEICGRKFTQKGNLLRHIKL | -0.647
FGCNQCGARFTQKGNLLRHIKL | -0.308
FVCEICGHPFTQKGNLLRHIKL | -1.58
LNCEICGFNCTQKGNLLRHIKL | -0.29
FLCEICGALFTQKGNLLRHIKL | -0.526
FRCDVCGADFTQKGNLLRHIKL | -2.19
FGCEQCGALFTQKGNLLRHIKL | -0.737
LMCNQCGFLCTQKGNLLRHIKL | 1.54
FACDICGAMFTQKGNLLRHIKL | -0.102
LTCEICGFDCTQKGNLLRHIKL | -0.593
FLCEICGHWFTQKGNLLRHIKL | -0.14
FWCEVCGAVFTQKGNLLRHIKL | -0.432
FECNQCGAKFTQKGNLLRHIKL | -1.18
FFCEICGRGFTQKGNLLRHIKL | -1.69
FRCPQCGAHFTQKGNLLRHIKL | -0.0611
FKCNVCGAMFTQKGNLLRHIKL | -1.08

Reference: the supplement of paper PMC12645437, “Orthogonal IMiD-Degron Pairs Induce Selective Protein Degradation in Cells” (ACS Chemical Biology, 2025)
